# ± gives the standard deviation of the averaged measurements. This is one part of the list.
# System: PfAP2-LT AP2 domain (GST-tagged)
# Assay: gcPBM binding intensity (ln(normalized median fluorescence intensity)); higher = stronger DNA binding
# Outline: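 In this array assay, P. falciparum DNA-binding domains with a GST tag, expressed in E. coli, were applied for 1 h to primer-extended double-stranded 36-bp intergenic genomic probes and negative controls on an Agilent 4 × 180k array. Bound protein was visualised with Alexa488 anti-GST antibody at 488 nm. Binding intensity is the highest Masliner-normalised natural-log median intensity across replicate spots of either probe orientation.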
row,Sequence,gcPBM binding intensity (ln)
1,GTGTTAATTTTAAATTGTACAAAATTTATATGATTT [XGTACX_site348],8.53 ± 0.35
2,GAAAAGCATAGATGCACACATATATATATATATATA [CACACA_site2169],10.18 ± 0.014
3,AAAATATATGAAAACAGTACATATAAAAATTAAAAA [XGTACX_site2594],8.75 ± 0.64
4,TTACACATATATATAAATATATATAAATATATATAT [CACACA_negctrl_site150],8.63 ± 0.35
5,ATATACTTTTTTTTTTTTTTTTTAACGTTATTTATG [CACACA_negctrl_site1277],8.79 ± 0.53
6,ATTTTTATACGTTTTTTTTTTTTTTTTTTTTATTTA [CACACA_negctrl_site1142],8.65 ± 0.61
7,ATTAATTTTGGTTCATGTACATAAGAAATAAACTCT [XGTACX_site4534],8.66 ± 0.35
8,TATAACATAATATAGACACACACATGTACTTATGCC [CACACA_site8547],9.4 ± 0.34
9,CACTACATTATGTCATAAATGCATACATAAACATAT [GTGCAC_negctrl_site513],8.85 ± 0.43
10,TTTATATTTCAATTTTGTGCTTCGCAAATTGAGAGG [TGCATGCA_negctrl_site327],8.29 ± 0.38
11,TTTTAACAAAAAAAAAGAAAAGAAAAGAAAATAATA [XGTACX_negctrl_site530],8.29 ± 0.52
12,TTAACTCTGGAGAAAAGTACATAGTATCTGGTAACA [XGTACX_site4941],8.63 ± 0.49
13,TATCCATATTTGTTCACACACACACCGATTTATATA [CACACA_site5888],9.69 ± 0.33
14,CAAAAAACAACAGATCGTACAAAATATTATATATAT [XGTACX_site2285],8.97 ± 0.38
15,TTGAAAAATGAGCACACACACAAATACATACATATT [CACACA_site3231],9.81 ± 0.23
16,ATTATAAAAATATATTGTACACAAAAATGTTTATAT [XGTACX_site5066],8.55 ± 0.42
17,CCAAATTTATTTTGTAGTACTCCGTATAGATCAACA [XGTACX_site7945],8.59 ± 0.33
18,TGAGATATAAAAATATGTACTTATGTATAAATATTT [XGTACX_site7746],8.64 ± 0.46
19,AAGTTTTTTTTTAACACACACATAATAAAATAAATA [CACACA_site446],8.93 ± 0.46
20,TATATTTATATCCACTTCGTTTAACGCACAGATATA [CACACA_negctrl_site954],8.79 ± 0.49
21,ATGTTACACCGACACACACACATAAAAAAACAAAAA [CACACA_site5750],9.61 ± 0.42
22,AAATTATATATATTACGTACATAGAACTTTACAGAA [XGTACX_site6646],8.61 ± 0.43

row,Sequence,gcPBM binding intensity (ln)
1,ATATACTATATTTTAACACACAAAAAAAAAAAATAT [CACACA_site1091],8.81 ± 0.54
2,TGGACAATTGTTTATTGTACTTAAATTTTATGTTCT [XGTACX_site8974],8.57 ± 0.57
3,AAGAAATAAAAAGAATGTACACAATATGTATTATAA [XGTACX_site4733],8.8 ± 0.47
4,AGCATTTTAAGTTATACACACATTTTGAATCTATAT [CACACA_site7599],9.01 ± 0.42
5,ATAAATAAATAAATAAATAAATATACATATACATAT [CACACA_negctrl_site205],8.72 ± 0.47
6,ATATTTTTTAATTTTACACACCATATAAAATAATTC [CACACA_site7339],8.71 ± 0.39
7,AAATATATTATATGTACACACAAAATTAAGGGATAT [CACACA_site1375],9.27 ± 0.43
8,ATCAATACTTTTTTGGGTACATAAATATATATATAT [XGTACX_site8436],8.83 ± 0.34
9,AACTAATTCATGTTATATTAGATAAAAAAAAAAAAA [TGCATGCA_negctrl_site340],8.38 ± 0.46
10,TTTTTTTTGTTCATTGTGCACATTGCTTGCATGGAA [GTGCAC_site9693],8.82 ± 0.51
11,AAAATAATAAATAAATGTACATATATATATATATAT [XGTACX_site3078],9.71 ± 0.12
12,ATAAGATTATACAATTGTACGTTGTTCAAGATAAGG [XGTACX_site191],8.8 ± 0.42
13,GTGTTTGAAAATAAAGCATGCAAATATATTTGAAAT [TGCATGCA_site386],9.04 ± 0.38
14,ATAATATATTTATAATGTACAAACCATTTGTATTAA [XGTACX_site4370],8.6 ± 0.45
15,TCTAACATATAATATTCACACACATATATATATTAT [CACACA_site8236],9.21 ± 0.43
16,ATTATTATTATATTTTGTACATATGTAACAATATAT [XGTACX_site5780],8.88 ± 0.43
17,CATTAAAATTGAGAGATGCACTTTTTAAGACCTTGT,8.46 ± 0.3
18,AAAAAAAATTAAATAAATAAATATACACATATATAT [GTGCAC_negctrl_site394],8.57 ± 0.5
19,AAAACATTGTTTATGTGTACATAATTATATTTACAA [XGTACX_site6926],8.7 ± 0.52
20,TTTTTTTTTTTTTTTTTTTTACCCCTTTTTCAAAAA [CACACA_negctrl_site1524],8.01 ± 0.48
21,TAAATATGTGTATGTAGTACATAGTGTTTTTTTTTT [XGTACX_site3748],8.7 ± 0.38
22,ATATTATGAATTGTCACACATATATTTAAAAATGTA [CACACA_site4852],8.49 ± 0.38

row,Sequence,gcPBM binding intensity (ln)
1,TGCATATTACTTTTTCACATAAAAATGATCCGATTA [GTGCAC_negctrl_site526],8.46 ± 0.46
2,AAAAAATGACTTAATATGAGCATATATTATGTTGTT [CACACA_negctrl_site1609],8.71 ± 0.42
3,AAAATATAAAAATGAAGTACAAAAAAAAAAAAAAAA [XGTACX_site8132],8.77 ± 0.51
4,GTTATACACATCAACACACACATACAACGTGGTGTA [CACACA_site6677],9.22 ± 0.37
5,TTATAATGAAATATATTCTTATTCTTTTTTTTTTTT [GTGCAC_negctrl_site384],8.11 ± 0.72
6,TTTTTTTTTTTTCATTGTACTCTTAAAAATTCAACT [XGTACX_site3154],8.49 ± 0.42
7,TAAAATGTACAGGACGCACACACATATATATATATA [CACACA_site3673],9.92 ± 0.42
8,AACAACAACTAATATGCACACATTTAAAAACAAAAT [CACACA_site2440],9.18 ± 0.38
9,ATTAAAATTTAAAATACACACACATATATATAATAT [CACACA_site8612],9.28 ± 0.29
10,TATTTTTTTTTTTTTTTACACACTATAGGGAAAAAA [CACACA_site8583],8.42 ± 0.34
11,AAACCTTTACATCGTTTGCACTATATTGATATGTGT [GTGCAC_site9686],9.26 ± 0.42
12,CATACATACATACATACACACACATATATATATATA [CACACA_site8593],9.87 ± 0.59
13,CTTCCTATATTTTACTGTACTTTTTTTTTTTTTTTT [XGTACX_site4016],8.96 ± 0.61
14,TTTTTTAACAAAAATAAAACATAACTGAATTAAAAG [GTGCAC_negctrl_site244],8.24 ± 0.48
15,ACGAATTAAATTTGCTGTACCAAAAAGAAAACAATA [XGTACX_site5511],8.78 ± 0.54
16,GCTTCTTAATATCATACACACATAGATATATTTATA [CACACA_site5676],8.94 ± 0.41
17,GGAGACTTTGTATTGGGTACGTATTTCAATGCATGT [XGTACX_site1596],8.96 ± 0.35
18,AACAAATGTTAAATGTTTAAGGAGAAAATAAAGACA [CACACA_negctrl_site1163],8.73 ± 0.47
19,GAAAACATAAAAATATGTACTTAAAATATATTTTGT [XGTACX_site868],8.66 ± 0.41
20,AAAACGAAACATCTGTGTATAAGTCTATATTATTAT [XGTACX_negctrl_site301],8.85 ± 0.38
21,TTTATGTGTATTAAGTGTACACATATAGTGTATTTT [XGTACX_site999],8.91 ± 0.49
22,ATATATAAGGAAAAAAGTACTTATATTTTTTTTTTG [XGTACX_site1909],8.39 ± 0.49

row,Sequence,gcPBM binding intensity (ln)
1,AAATAAAGCATGTGCTGTACAAACGAAATATTTAAG [XGTACX_site3146],9.05 ± 0.54
2,TGTCATGATACATACACACACATACCCATACCCATA [CACACA_site5211],9.74 ± 0.26
3,ATATTTATATATAGTAGTACTTTCAATAATTTAAAT [XGTACX_site7276],8.46 ± 0.33
4,AATACAAGAACTGACACACATACATACTACATTTTA [CACACA_site2829],9.25 ± 0.45
5,TCTTAAAATATATAGGTGCAAAAAAAAAAAAAAAAA,8.48 ± 0.43
6,TATGATATTTATATGCGTACTGAAGTATGCCTATTT [XGTACX_site6133],9.12 ± 0.48
7,AAAAAATTAAAAATACGTACATATATACATATATAT [XGTACX_site4621],8.74 ± 0.4
8,AAAGAAAGAAGACACACACACATATATAAATATCAA [CACACA_site7715],9.88 ± 0.23
9,ATCAGTGATTAGGTTATATATAAAAATGAACTAATA [GTGCAC_negctrl_site647],8.65 ± 0.49
10,ATATTCATGTTGATATGTACTTATTCTATATTGAAT [XGTACX_site8347],8.81 ± 0.31
11,TATATATATATATATATACACACTTGTGCAGAATAT [CACACA_site2216],10 ± 0.18
12,AGATTAAAATAATATAAACACACATATACTTTTTTC [CACACA_site8085],8.77 ± 0.45
13,ATAATTAAAAAAAATTGTACATATAAATAGAAGATT [XGTACX_site230],8.76 ± 0.45
14,AAAAAAAAAAGAATAGCACACACACCGATATAAATA [CACACA_site8111],9.71 ± 0.37
15,TAGGTATGCTCTCAATGTACATAAAATAATTTTACT [XGTACX_site6556],8.64 ± 0.38
16,TGTTTTTATTTATTCTGTACTGAAGAGAGTTATATA [XGTACX_site8859],8.53 ± 0.42
17,TTTAAATACAGACATACACACATACACCCACATATA [CACACA_site8078],9.61 ± 0.15
18,TAAGAAATAAATAGTACACACATAGACACAGACACA [CACACA_site4934],9.65 ± 0.29
19,GTATATGAGAAAAAAAGTACATGCACAAAATGTATA [XGTACX_site6441],9 ± 0.49
20,ATATAAATTTTTTATGAACACACAAATACAGACACT [CACACA_site8848],9.06 ± 0.26
21,GATATTCTATAAAAAAGTACAAATATTTTAAAAAAT [XGTACX_site2177],8.48 ± 0.49
22,AGCATTAATTATTTCACACATATATATATATATATA [CACACA_site4889],9.58 ± 0.11

# Reference: the supplement of paper PMC11417369
